The supplement of paper PMC4166925
± gives the standard deviation of the averaged measurements. In all, about 33,000 sequences were measured (“E-score (dimensionless, -0.5 to 0.5)”: median about -0.046, highest 2% from about 0.36 on). Some of the results follow.

Each sequence was assayed on T1, SpTbr T-box DNA-binding domain (GST fusion) (assay: PBM E-score of 8-mer (E-score (dimensionless, -0.5 to 0.5)); Tbr is Tbrain of the sea star Patiria miniata (Pm) or the sea urchin Strongylocentrotus purpuratus (Sp); higher = stronger binding preference; most listed sequences are background and not binding sites). Details: the construct has about 5 more residues each side.
T1 sequence: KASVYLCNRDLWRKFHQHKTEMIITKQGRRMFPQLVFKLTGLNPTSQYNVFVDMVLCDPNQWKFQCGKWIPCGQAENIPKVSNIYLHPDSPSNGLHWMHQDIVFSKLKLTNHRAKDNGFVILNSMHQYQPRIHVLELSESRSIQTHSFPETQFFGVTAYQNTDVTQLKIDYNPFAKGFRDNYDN
Method in brief: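 GST-fused Tbr T-box DNA-binding domains (the whole T-box plus about five flanking residues) were expressed in BL21 E. coli at 20 °C and purified by glutathione affinity chromatography. Universal Agilent oligonucleotide arrays were made double-stranded by primer extension, incubated with 200 nM protein in PBS (pH 7.5), then scanned and quantified. Every ungapped 8-mer was scored from probe intensities. The Universal PBM Analysis Suite gave each word an enrichment E-score, averaged over duplicate arrays.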
For GTCTAGTA, the “PBM E-score of 8-mer” value was -0.223 ± 0.014. For ATGGCTGC, the “PBM E-score of 8-mer” value was -0.0303 ± 0.008. With ACGGAACG the “PBM E-score of 8-mer” value was -0.139 ± 0.013. With ACTAGTTA the “PBM E-score of 8-mer” value was -0.0774 ± 0.05. CCTAATAC was tested, and the “PBM E-score of 8-mer” value was -0.0192 ± 0.032. For TCAGAAGA, the “PBM E-score of 8-mer” value was -0.159 ± 0.1. With CTTATAAA the “PBM E-score of 8-mer” value was -0.0933 ± 0.017. CGCAAACA was tested, and the “PBM E-score of 8-mer” value was 0.185 ± 0.005. With CAGTGGCC the “PBM E-score of 8-mer” value was -0.0537 ± 0.04. CCCCTTGC was tested, and the “PBM E-score of 8-mer” value was -0.154 ± 0.0037. CAAATAGC was tested, and the “PBM E-score of 8-mer” value was -0.0983 ± 0.0097. CTCCTGTA was tested, and the “PBM E-score of 8-mer” value was -0.177 ± 0.056. ACGACCGC was tested, and the “PBM E-score of 8-mer” value was -0.0246 ± 0.0092. With CAGGCTGC the “PBM E-score of 8-mer” value was -0.0209 ± 0.066. In the case of GTATTAAA, the “PBM E-score of 8-mer” value is reported as -0.208 ± 0.023. For CCTAACAA, the “PBM E-score of 8-mer” value was 0.161 ± 0.035. With CATCGCTC the “PBM E-score of 8-mer” value was -0.0535 ± 0.017. TAACGGTA was tested, and the “PBM E-score of 8-mer” value was 0.0285 ± 0.058. With TACTTTGA the “PBM E-score of 8-mer” value was -0.188 ± 0.03. In the case of GGGTCCGA, the “PBM E-score of 8-mer” value is reported as -0.141 ± 0.015. For GGATCGCA, the “PBM E-score of 8-mer” value was 0.208 ± 0.07. In the case of CCAGGAGA, the “PBM E-score of 8-mer” value is reported as -0.317 ± 0.0076. With CATGGAGA the “PBM E-score of 8-mer” value was -0.191 ± 0.018. For CCTGATAA, the “PBM E-score of 8-mer” value was -0.153 ± 0.1. For CCCCTAAA, the “PBM E-score of 8-mer” value was -0.193 ± 0.027. For ATTAGGAG, the “PBM E-score of 8-mer” value was -0.247 ± 0.041. CCGATAAC was tested, and the “PBM E-score of 8-mer” value was 0.2129 ± 0.0014. ACAGTGAT was tested, and the “PBM E-score of 8-mer” value was 0.102 ± 0.051. In the case of AATGCGGG, the “PBM E-score of 8-mer” value is reported as -0.168 ± 0.02. For ATGGAAGC, the “PBM E-score of 8-mer” value was -0.211 ± 0.038. In the case of CAGACATC, the “PBM E-score of 8-mer” value is reported as -0.279 ± 0.042. With GTTTTGAA the “PBM E-score of 8-mer” value was -0.265 ± 0.09. In the case of GGCGGTAA, the “PBM E-score of 8-mer” value is reported as 0.0263 ± 0.05. For CCAAGTGA, the “PBM E-score of 8-mer” value was 0.117 ± 0.037. With ATCGCACC the “PBM E-score of 8-mer” value was 0.47 ± 0.006. For AAGGTTCC, the “PBM E-score of 8-mer” value was -0.194 ± 0.084. In the case of GGCGTACC, the “PBM E-score of 8-mer” value is reported as -0.167 ± 0.008. With CATAGATA the “PBM E-score of 8-mer” value was -0.176 ± 0.019. For TTCGCGAA, the “PBM E-score of 8-mer” value was 0.3584 ± 0.0003. With CGGAAAGC the “PBM E-score of 8-mer” value was -0.09084 ± 0.00053. For AAACTTAG, the “PBM E-score of 8-mer” value was -0.0393 ± 0.033. With ATCTGCCC the “PBM E-score of 8-mer” value was -0.0559 ± 0.069. In the case of TCGATACA, the “PBM E-score of 8-mer” value is reported as -0.156 ± 0.051. CCGGTGAC was tested, and the “PBM E-score of 8-mer” value was 0.107 ± 0.014. In the case of ACTAGCAC, the “PBM E-score of 8-mer” value is reported as 0.329 ± 0.04. With CTCCGATA the “PBM E-score of 8-mer” value was -0.0115 ± 0.062. AGTTGTAA was tested, and the “PBM E-score of 8-mer” value was 0.111 ± 0.11. ATTTTATA was tested, and the “PBM E-score of 8-mer” value was -0.136 ± 0.01. With GCTTCTAC the “PBM E-score of 8-mer” value was -0.213 ± 0.018. In the case of AGCAATGG, the “PBM E-score of 8-mer” value is reported as -0.0492 ± 0.0048. GACCAGTC was tested, and the “PBM E-score of 8-mer” value was -0.333 ± 0.075. For ATGGTGAG, the “PBM E-score of 8-mer” value was 0.194 ± 0.0033. With AGGACAGA the “PBM E-score of 8-mer” value was 0.0786 ± 0.025. With CTTGAATA the “PBM E-score of 8-mer” value was -0.249 ± 0.014. For CCTCCCAA, the “PBM E-score of 8-mer” value was -0.243 ± 0.051. In the case of ACGCTGCT, the “PBM E-score of 8-mer” value is reported as 0.0165 ± 0.042. For GAACTAGA, the “PBM E-score of 8-mer” value was -0.205 ± 0.0011. GGAGGAGA was tested, and the “PBM E-score of 8-mer” value was -0.0769 ± 0.035. In the case of CAAATTGC, the “PBM E-score of 8-mer” value is reported as -0.0419 ± 0.069. With CGTCTCTA the “PBM E-score of 8-mer” value was -0.0622 ± 0.021. For ATATGCTA, the “PBM E-score of 8-mer” value was 0.0317 ± 0.029. In the case of GCAAATAA, the “PBM E-score of 8-mer” value is reported as 0.0696 ± 0.009. AACCGTCA was tested, and the “PBM E-score of 8-mer” value was 0.158 ± 0.01. In the case of CTGGCGAC, the “PBM E-score of 8-mer” value is reported as 0.14 ± 0.0022. In the case of AACCTTCG, the “PBM E-score of 8-mer” value is reported as -0.0878 ± 0.018. In the case of TTGTCAAA, the “PBM E-score of 8-mer” value is reported as 0.0897 ± 0.09. In the case of GTACTCAC, the “PBM E-score of 8-mer” value is reported as 0.151 ± 0.1. For AAGTAAAG, the “PBM E-score of 8-mer” value was -0.1625 ± 0.00038. TAGGTAGA was tested, and the “PBM E-score of 8-mer” value was -0.0909 ± 0.078. For ATTCCCAG, the “PBM E-score of 8-mer” value was -0.277 ± 0.057. CCTTCAAA was tested, and the “PBM E-score of 8-mer” value was -0.22 ± 0.0023. In the case of GTCAATGA, the “PBM E-score of 8-mer” value is reported as 0.078 ± 0.036. In the case of ACTGAGCT, the “PBM E-score of 8-mer” value is reported as -0.112 ± 0.04. In the case of CTGAGATA, the “PBM E-score of 8-mer” value is reported as -0.0665 ± 0.054. AAAGACTT was tested, and the “PBM E-score of 8-mer” value was -0.322 ± 0.041. For CAAGGCGC, the “PBM E-score of 8-mer” value was 0.244 ± 0.051. AAAATGCG was tested, and the “PBM E-score of 8-mer” value was -0.0352 ± 0.056. For GGGTGCAA, the “PBM E-score of 8-mer” value was 0.271 ± 0.017. In the case of TAAAGATA, the “PBM E-score of 8-mer” value is reported as -0.108 ± 0.028. GGGAAAGA was tested, and the “PBM E-score of 8-mer” value was -0.192 ± 0.041. With CTTCACTA the “PBM E-score of 8-mer” value was 0.0992 ± 0.0044. In the case of ACGCTAGA, the “PBM E-score of 8-mer” value is reported as -0.0158 ± 0.03. With ACCGAGGA the “PBM E-score of 8-mer” value was -0.0878 ± 0.039. TAGTGCCA was tested, and the “PBM E-score of 8-mer” value was 0.195 ± 0.009. ATCAAGTA was tested, and the “PBM E-score of 8-mer” value was -0.0375 ± 0.031. TAGTAAAA was tested, and the “PBM E-score of 8-mer” value was -0.123 ± 0.027.
